Data reported in the supplement of paper PMC3334620.
Over roughly 33,000 sequences, “E-score (-0.5 to 0.5)” has its median near -0.012; the highest 2% begin near 0.29. This is one part of the list.

Biological target: T1, Ybr033w (UniProt P38073)
T1 sequence: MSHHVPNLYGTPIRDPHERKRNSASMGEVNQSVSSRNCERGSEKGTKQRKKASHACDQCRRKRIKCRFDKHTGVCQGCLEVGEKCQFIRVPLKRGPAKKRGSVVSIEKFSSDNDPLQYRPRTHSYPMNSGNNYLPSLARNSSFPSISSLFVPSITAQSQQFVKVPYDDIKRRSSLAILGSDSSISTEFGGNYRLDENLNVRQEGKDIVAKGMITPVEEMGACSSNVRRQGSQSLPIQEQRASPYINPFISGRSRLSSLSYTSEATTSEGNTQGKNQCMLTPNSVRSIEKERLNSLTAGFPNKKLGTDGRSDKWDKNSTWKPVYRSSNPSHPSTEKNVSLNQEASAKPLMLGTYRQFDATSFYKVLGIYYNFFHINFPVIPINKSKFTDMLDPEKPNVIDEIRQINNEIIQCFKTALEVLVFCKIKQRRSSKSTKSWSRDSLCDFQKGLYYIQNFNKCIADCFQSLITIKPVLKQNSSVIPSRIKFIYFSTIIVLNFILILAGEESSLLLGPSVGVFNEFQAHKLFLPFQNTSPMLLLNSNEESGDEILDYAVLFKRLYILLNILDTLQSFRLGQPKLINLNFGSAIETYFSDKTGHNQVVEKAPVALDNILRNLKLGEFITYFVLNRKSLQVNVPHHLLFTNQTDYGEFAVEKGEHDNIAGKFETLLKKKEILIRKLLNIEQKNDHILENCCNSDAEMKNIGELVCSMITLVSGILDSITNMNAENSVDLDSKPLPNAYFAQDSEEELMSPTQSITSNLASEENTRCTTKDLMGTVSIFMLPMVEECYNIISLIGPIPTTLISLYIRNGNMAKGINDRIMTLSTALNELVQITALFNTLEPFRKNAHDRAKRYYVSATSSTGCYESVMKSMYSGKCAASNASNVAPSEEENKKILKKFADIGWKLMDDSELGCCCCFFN
Assay: PBM E-score (8-mer binding enrichment) (E-score (-0.5 to 0.5)); higher = stronger / more preferred TF binding; most listed sequences are background and not binding sites
Conditions: protein concentration: 200 nM; construct: GST-full length
Method in brief: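 E-scores (a modified Wilcoxon-Mann-Whitney statistic) were assigned by the Universal PBM Analysis Suite to every ungapped eight-base word pooled with its reverse complement. The input came from universal all-10-mer Agilent arrays made double-stranded by primer extension and probed with GST-tagged yeast transcription factors at about 100-200 nM. Fluorescent anti-GST detected bound protein, and masliner normalised the scans.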

Row | Sequence | PBM E-score
1 | TGAGCAAA | 0.0518
2 | TCGATCAA | -0.0721
3 | AGAACGCA | 0.0305
4 | CCGGCGTC | -0.131
5 | ACCGCATA | 0.0633
6 | AGTTGACA | 0.179
7 | CAATATAC | 0.0977
8 | CTCGCGTC | 0.0487
9 | ACACCGAT | -0.185
10 | ACAGACAC | 0.00371
11 | GCTCATCA | -0.00535
12 | CCTACATC | 0.0261
13 | GCCATCCC | -0.232
14 | CGTGCTTA | 0.103
15 | ACTATTCT | -0.0961
16 | GGTATGAA | 0.179
17 | AAGATTGC | 0.211
18 | CTGCGTGA | 0.0319
19 | GGGTTGCA | -0.0638
20 | CGGTATTC | 0.0714
21 | CCAGATAG | -0.0173
22 | AAAGTTAT | 0.273
23 | ATGGAGAC | 0.00234
24 | ATTATATC | 0.256
25 | CTCGAGTC | -0.149

Row | Sequence | PBM E-score
26 | CATGCACC | -0.134
27 | GAGCCCAA | 0.0706
28 | TACTAGAA | 0.201
29 | GGTTAGAA | -0.173
30 | ATCTCGTA | 0.0387
31 | GCTAGCTA | -0.0365
32 | CGAGGTGC | 0.0309
33 | AACGGAGT | 0.17
34 | ACGTAAGC | -0.0026
35 | CGAAATAC | 0.216
36 | GTTGCGTA | 0.0664
37 | AAGCTATA | 0.0695
38 | CAAGGGTC | -0.0781
39 | GGCTCTAA | 0.0469
40 | AGCAAATA | 0.175
41 | CAGCCATG | -0.186
42 | CCCGCTTA | -0.0644
43 | GCAGCTCC | -0.21
44 | AGGTCAAG | -0.164
45 | CGTAACGC | -0.0436
46 | CTTTTATC | 0.232
47 | GAAACTCC | -0.0705
48 | CTTGTCCC | -0.107
49 | ATTTCGAA | 0.203
50 | GGTGAAAC | -0.0036

Row | Sequence | PBM E-score
51 | AGTAAGAC | -0.00585
52 | ACATGACC | -0.186
53 | GTACGAGA | 0.0385
54 | TCAGATCA | -0.0206
55 | GGTTAAGA | 0.0725
56 | ACGCAGAG | -0.047
57 | CAGGCGAC | -0.244
58 | AATGCTAA | 0.134
59 | GGCGATTA | -0.0414
60 | AGCAAAGG | -0.0121
61 | AGTGTGGG | -0.0564
62 | CCCACCGA | -0.0552
63 | GGCAGATA | -0.0416
64 | GCCGTCGC | -0.0905
65 | CTATCTGA | -0.0868
66 | CAGGTCAC | -0.329
67 | CGATTTCC | 0.00799
68 | TAATCTGA | 0.227
69 | ACGCTTTA | -0.0983
70 | GTCCCACA | 0.0224
71 | AGTAACTC | 0.103
72 | ATGTGCTA | 0.208
73 | AACTTGAG | -0.167
74 | CGACCATC | -0.151
75 | CATCCACA | 0.139

Row | Sequence | PBM E-score
76 | GGACAGGA | -0.146
77 | ACGCTAAG | -0.00684
78 | ATCACGAT | -0.0335
79 | GTAGTACA | 0.0863
80 | GTGTGAAA | 0.082
81 | ATCGAAGG | 0.133
82 | ATAAAGAA | 0.291
83 | ACTATTAG | 0.111
84 | CATGTAAA | 0.129
85 | ACTCCGAA | 0.0874
86 | AAAAGGTA | 0.0903
87 | AATACCAT | 0.207
88 | GGAAGACA | -0.156
89 | TAGTCATA | 0.109
90 | TACCCGGA | 0.153
91 | CCGAGTCA | -0.0886
92 | GATAAAAC | 0.323
93 | AGTCAGCC | -0.243
94 | CCAATGGC | -0.0826
95 | CACCAAAA | 0.169
96 | AGGAGTGG | -0.224
97 | CACTAGGC | 0.0497
98 | ACCAGGGC | -0.217
99 | ATCGGTAG | -0.0973
100 | TAAGGGCA | -0.0146

Row | Sequence | PBM E-score
101 | CAATCATA | 0.235
102 | TCTGGTCA | 0.0139
103 | ATTCAAGC | 0.221
104 | ACTACGGA | -0.0746
105 | AACACTGC | 0.14
106 | GTGCTGTA | -0.0114
107 | CGCTTGTC | -0.108
108 | GAGACCGC | -0.201
109 | CATGAATC | -0.0342
110 | CCAGCATC | -0.129
111 | AATCGTAA | 0.127
112 | CTACCCCA | -0.102
113 | ACCGCTCT | -0.201
114 | AGCAGCGG | -0.284
115 | CTGATCTA | -0.016
116 | CCCGGTCG | -0.214
117 | ATGGCTCC | -0.115
118 | AAACGTTC | 0.0667
119 | CAGCAACG | 0.25
120 | GGACGACC | -0.35
121 | AGCTGAGA | 0.0476
122 | AGCTAGAA | -0.106
123 | AAATTGCC | 0.145
124 | TAAAGTTA | 0.358
125 | GAGGCTCC | -0.0793

Row | Sequence | PBM E-score
126 | CCGCGACC | -0.312
127 | ATAGTTTG | 0.173
128 | AAGTTCCA | 0.071
129 | CAAGGGCC | -0.343
130 | AGCCACGC | -0.147
131 | CAAATGAA | 0.105
132 | TCCCCCCA | -0.219
133 | CCCGCAGA | -0.114
134 | ATGCGAGG | 0.0583
135 | GCGGTTTA | 0.0281
136 | ATGCGATA | 0.0197
137 | AATCCTAG | -0.00295
138 | GCCTTGAA | -0.134
139 | TCTACACA | 0.0567
140 | AAAACCCC | -0.16
141 | CCACGCAG | -0.0756
142 | GCGAACCA | 0.129
143 | ATGAAAGG | 0.105
144 | AAAGATGC | 0.0969
145 | ATACCGAT | -0.0135
146 | TAAGAAGA | 0.181
147 | TACCTTGA | 0.0473
148 | AATTATAA | 0.253
149 | CGACTCCC | -0.0642
150 | ACCATACT | 0.163

Row | Sequence | PBM E-score
151 | AGTATGGG | -0.00901
152 | AAATAGGC | 0.0382
153 | ATGTCAAG | 0.0775
154 | CTAATAGC | 0.0371
155 | CCCAAATA | -0.0463
156 | TAAATGGA | 0.227
157 | GAAGACCC | -0.0177
158 | GTATAAAC | 0.158
159 | AAGTGCGC | 0.0294
160 | GAGGCGCA | -0.122
161 | GGAGCCTA | -0.159
162 | CATAAGAA | 0.239
163 | CGAGCTAC | 0.00404
164 | AGGTTGCG | -0.0729
165 | TACGGTCA | -0.106
166 | ACCGTTGC | -0.199
167 | TCGCGGCA | -0.0938
168 | CACGACTG | -0.175
169 | CCTACGGC | -0.162
170 | ATGCGATC | -0.069
171 | AAACATAC | 0.0502
172 | AGTCCTAC | 0.0159
173 | GATCATAA | 0.144
174 | GGAGGTCA | -0.151
175 | AGGACCAT | -0.165

Row | Sequence | PBM E-score
176 | CATTAATC | 0.252
177 | AGATACAT | 0.0853
178 | TCACGGGA | -0.0099
179 | TGCGCCCA | -0.216
180 | TGACAAAA | 0.193
181 | ACCCCTCA | -0.21
182 | GGAAAGTA | 0.0884
183 | AACTGTGA | -0.00839
184 | CCCGTCAG | -0.245
185 | CAGCTTAA | 0.0823
186 | GAACCTGA | -0.00273
187 | ACACGACT | 0.0367
188 | ACCTTCGA | 0.0304
189 | GGACAACA | -0.128
190 | CATCGCAA | -0.102
191 | CATGACAG | 0.0177
192 | ATACATAG | 0.0778
193 | CTACGCGA | -0.0526
194 | ATAAAACC | 0.0831
195 | AACTTCAA | 0.193
196 | GTGAAATA | 0.19
197 | ATAAGAGA | 0.179
198 | GGACACCC | -0.298
199 | ACGAAAGT | 0.00157
200 | AAATGAGT | 0.185

Row | Sequence | PBM E-score
201 | GCAAGCGC | -0.00847
202 | AACCAATC | 0.133
203 | TGGACCCA | -0.122
204 | AAGCGAGC | 0.0259
205 | AACGTCCC | -0.166
206 | TAAGCCCA | 0.0539
207 | AAAGGAGC | -0.0899
208 | CACGCTAC | -0.244
209 | GAAGTACA | 0.0302
210 | CGATCGCC | -0.139
211 | CCAGCTAC | -0.0708
212 | GAACCTCA | -0.156
213 | ACTGGTGG | -0.0618
214 | GGGTCGGA | -0.25
215 | CTATTACA | 0.135
216 | AAGGGTCC | -0.163
217 | CGAGTGTC | -0.227
218 | GTGGACAA | 0.14
219 | AGCGCCTA | -0.167
